B1: chr12:71585298:71585408:+|3pUTR|ENSG00000139292|unk|FALSE|unique (ssRNA)
RNA: GGGAGUUCUACAGUCCGACGAUCUUGUUAACUCACUCAUAUUGAGAUCAUUUUUAGAGAUACCAGGUUUUAUGUAUCAGCACUAGAUGGUUCCACCCUCAUGGGAUAAAACUGCUUACAAGUAUUUUGAAAGAAAAACUGACCCAACAGAGGAUUGAGCAUCA
B2: ENSG00000146918:stop:overlap|stop_codon|ENSG00000146918|stop_codon|NA|stop_codon (ssRNA)
RNA: GGGAGUUCUACAGUCCGACGAUCGGGCUCUAACUCCUGGACUCCUGGACUCAAUCUAUCCUUCUGCCUCAGUCCCAAUUGGCUAGGACUGCAGGCACACACCACCAGACCCAGCUAAUGUAAUUUCUAUCUAUAUGUGUCUUUCAACAGAGGAUUGAGCAUCA
B3: ENSG00000198589:be:win_6501|CDS|ENSG00000198589|bound_else_gene|NA|bound_elsewhere_windowed (ssRNA)
RNA: GGGAGUUCUACAGUCCGACGAUCCUAUCUACCUCGUGUUGGCGUUGGAACAAGUUUUGGAUUGCCUCAAACCAGACGUAUUUCAUUAGCUAGUCCACGUCAGCUUUUUAAGGCUUCUAAUAUGACCCAGCGAUGGCAACACAGCAACAGAGGAUUGAGCAUCA
B4: chr1:169124931:169125019:+|5pUTR_CDS|ENSG00000143153|msi1_unk|total|mutant (ssRNA)
RNA: GGGAGUUCUACAGUCCGACGAUCGAAAUUUCCUUUCGUCCUAAUGAUCCCAAGAGCUAUGAGGCAUAUGUACUGAACACCGUCCGGUUCCUGGAAAAGUACAAAGAUUCAGCCCAGAGGGAUGACAUGAUUUUUGAAGAUUGUCAACAGAGGAUUGAGCAUCA
B5: ENSG00000198589:be:win_2801|CDS|ENSG00000198589|bound_else_gene|NA|bound_elsewhere_windowed (ssRNA)
RNA: GGGAGUUCUACAGUCCGACGAUCAUAUAUUUAGGGAACAGCAAGGAAAAGUUGAUGAAGAAAUAGGGCUGUGUUCUUCAACUUCAGUUCAAGCAGCCUCUGGCAUUAGAAGGGAUAUUAAUGUUUCAGUAGGAUCCCAGCAACCAACAGAGGAUUGAGCAUCA
B6: chr11:59152587:59152688:+|CDS|ENSG00000166801|msi1|total|mutant (ssRNA)
RNA: GGGAGUUCUACAGUCCGACGAUCAUUGAAAACUUCAAGAAAAAAAUGAAAGUAAAAAAUGGGGAAACAUUAUUUGAAUUGCACCGAACAACGUUUGGGAAAGUAACAAAAAAUUCUUCUUCGAUUAAAGCCGUGAAACUUCUUCAACAGAGGAUUGAGCAUCA
B7: chr4:124666837:124666938:-|3pUTR|ENSG00000151458|msi1|total|mutant (ssRNA)
RNA: GGGAGUUCUACAGUCCGACGAUCAAUGAUUUCUUGGCAGUUUAAAAAAAAUAUUUUACCGCCGUUCCGGGAGCUGCUUUAAGCCGUUUAAAUCUGGAUUUUCCCAGCCGAAUUCUUCUCAUCUCUGGCUAAACAUGUCAGAACCAACAGAGGAUUGAGCAUCA
B8: chr1:86745841:86745942:+|3pUTR|ENSG00000097033|msi1|FALSE|bound_elsewhere (ssRNA)
RNA: GGGAGUUCUACAGUCCGACGAUCAUGGUGCAGUUCAGAAUUGUUUAAAUAAGCUCUGUGCCACUGAGCUUAAUCUGAAAGUAUAGUGACAUGUGAAGGAUGCACAUAUGAAUGAAAAACUAAAAUAAUUGUAGGCUCUUCUAUCAACAGAGGAUUGAGCAUCA
B9: chr12:26337790:26337891:-|3pUTR|ENSG00000123104|unk|FALSE|unique (ssRNA)
RNA: GGGAGUUCUACAGUCCGACGAUCAAGAUCUAUGUAGAAUAUAAAGGAAGCCUGAACCAAUCCUUCCACAUACUGUUAAGAUGUAGACUUGGAACAAAGCUGUUGGGACCCAGAGCAAUGAAUUUUUGAACUGAAGCUACUGGUCAACAGAGGAUUGAGCAUCA
B10: chrX:150470157:150470258:+|CDS|ENSG00000013619|unk|total|mutant (ssRNA)
RNA: GGGAGUUCUACAGUCCGACGAUCUCCAAAUGAGCCCGAUCUUGAGAAGAUACUGGGGACGAAGCCAGAAGAGCCACUGGUUUCCGAUCAUCCCCAGGCAACCCUAAGCACAACUCCCAAGCCUUCGGUUCAGAUGUCACACUUCAACAGAGGAUUGAGCAUCA
B11: ENSG00000144749:stop:overlap|stop_codon|ENSG00000144749|stop_codon|NA|stop_codon (ssRNA)
RNA: GGGAGUUCUACAGUCCGACGAUCCACUGACAGGACAGCUCCCCGGGAAACAGAGGGUGCCACUGCUGUUGGCACCAAAAAGCUAGGUUUUGUCUACCUCAGUUCUUGUCAUACCAAUCUCUACGGGAAAGAGAGGUAGGAGAGCAACAGAGGAUUGAGCAUCA
B12: chr12:108783210:108783311:-|3pUTR|ENSG00000084112|msi1|FALSE|unique (ssRNA)
RNA: GGGAGUUCUACAGUCCGACGAUCUGUUUAUCCUGCUAUGCAGUUUUACAUUGUGUGUUCACAUCUAUUCCAAGGAGCCUUGCUAGAAACAACACUGGCGGUUCCUGCAGGCCAGGCAGGCAUUGGCCCAUGCUGUGUCCCAUACAACAGAGGAUUGAGCAUCA
B13: chr14:100883974:100884119:-|CDS|ENSG00000254656|unk|total|mutant (ssRNA)
RNA: GGGAGUUCUACAGUCCGACGAUCGUUCUAUAACGACCGUCUGAGAGUUGGCUAUGUCAUCAAUCACCUGUCCGGCUUGGCAUCCGAAUGGGCCAAAGCUCUACUGCAGGAAAACAGCCCCCUGAUCGGAGACUUCCCAGCCUUCAACAGAGGAUUGAGCAUCA
B14: chr7:76328962:76329048:-|3pUTR|ENSG00000170027|msi1_unk|FALSE|overlapping (ssRNA)
RNA: GGGAGUUCUACAGUCCGACGAUCACCUGAGGUCUCAUUCAUCCUUAUGGUUUAGGCCUUGCCAGUUUUCCGAAGUCUCUGAUUAGUUGACAGUAUUAACACUAAAUUGCAGUUUACAGUAUUUCUACAUUACAGCCAUAUGUACAACAGAGGAUUGAGCAUCA
B15: chr20:37404728:37404829:+|3pUTR|ENSG00000197122|msi1|FALSE|unique (ssRNA)
RNA: GGGAGUUCUACAGUCCGACGAUCGGCCUCUGCAACUGCUCAGCUCUGGUCCAGGCCCUGUGGCAGGACACACAUGGUGAGCCUAGCCCUGGGACAUCAGGAGACUGGGCUCUGGCUCUGUUCGGCCUUUGGGUGUGUGGUGGACAACAGAGGAUUGAGCAUCA
B16: chr10:68791452:68791550:+|3pUTR|ENSG00000060339|msi1_unk|FALSE|overlapping (ssRNA)
RNA: GGGAGUUCUACAGUCCGACGAUCCUAGCCUUCAAAUUAUUAAACACUCCUUGAGUGAAAUAAUUUUGCAUUGCAAAGUGUUUUAGGAUGAACUUUGUUAUAGUUUUAACUCCAAUAAAGUUCAUCAGUUUAAUUGACUGUAGUCAACAGAGGAUUGAGCAUCA
B17: chr9:128810308:128810409:+|3pUTR|ENSG00000107021|unk|total|mutant (ssRNA)
RNA: GGGAGUUCUACAGUCCGACGAUCUACAGAUUGAGCUGUAUGAAUUCAGCGGGUCUCACUCCAGAGGGUCAGAACGUUUGCUUCCGUUUUUUCAUCUGUUUUGUUCCUUGAGUCAGUGCUGUUGAUGACGAGUUGUCUUGAAUACAACAGAGGAUUGAGCAUCA
B18: chr5:150649000:150649101:+|CDS|ENSG00000171992|msi1|FALSE|bound_elsewhere (ssRNA)
RNA: GGGAGUUCUACAGUCCGACGAUCCAGGCCUUUUGGGAUCCAGGCGCCAGGGGGCACCAGCCAGAUGGAGAGGAGCCCCAUGCUAGAGAGACGACAUUUUGGGGAGAAGGCCCCGGCUCCCCAGCCCCCCAGUUUGCCAGACAGCAACAGAGGAUUGAGCAUCA
B19: chr4:186618492:186618593:-|CDS|ENSG00000083857|msi1|total|mutant (ssRNA)
RNA: GGGAGUUCUACAGUCCGACGAUCGUAAUCACUACAAAGGAGAGCCUCAUUGGCUUGGAAAAUGAAUUCUUCACUUUCUUUGUCCGAGCUGUGGAUAAUGGGUCUCCAUCAAAAGAAUCUGUUGUUCUUGUCUAUGUUAAAAUCCAACAGAGGAUUGAGCAUCA
B20: ENSG00000198589:be:win_4501|CDS|ENSG00000198589|bound_else_gene|NA|bound_elsewhere_windowed (ssRNA)
RNA: GGGAGUUCUACAGUCCGACGAUCAGAGAUCUUGACAGGCUUCUACAGGACAUGGAUAUUAAUCGGCUUAGGGCAGUUGUUUUCAGAGACAUAGAGGAUAGCAAACAAGCUCAAUUUUUAGCCUUGGCAGUAGUAUACUUUAUCCAACAGAGGAUUGAGCAUCA
B21: chr11:8612036:8617995:-|three_prime_utr|ENSG00000166436|control|control|control (ssRNA)
RNA: GGGAGUUCUACAGUCCGACGAUCCCCAUACUGUCGACCAUUCCUCCCCAUCUUGCAGCUUAUCCUCUUCAGAGUGUGGAUGGUAGAUGAGUCUUGUUGAACUGUGUAGUGCUCUUCUUUGCCAUUUGCAUCUACAGCAUUUAUCAACAGAGGAUUGAGCAUCA
B22: chr14:106537809:106538116:-|CDS|ENSG00000211964|control|control|control (ssRNA)
RNA: GGGAGUUCUACAGUCCGACGAUCUGGGUCCGCCAGGCUCCAGGGAAGGGGCUGGAGUGGGUUUCAUACAUUAGUAGUAGUGGUAGUACCAUAUACUACGCAGACUCUGUGAAGGGCCGAUUCACCAUCUCCAGAGACAACGCCCAACAGAGGAUUGAGCAUCA

Some of the results follow.

This assay addresses T1, UNK ZnF1-6 (called full-length) (human, UniProt Q9C0B0 30-357).
T1 sequence: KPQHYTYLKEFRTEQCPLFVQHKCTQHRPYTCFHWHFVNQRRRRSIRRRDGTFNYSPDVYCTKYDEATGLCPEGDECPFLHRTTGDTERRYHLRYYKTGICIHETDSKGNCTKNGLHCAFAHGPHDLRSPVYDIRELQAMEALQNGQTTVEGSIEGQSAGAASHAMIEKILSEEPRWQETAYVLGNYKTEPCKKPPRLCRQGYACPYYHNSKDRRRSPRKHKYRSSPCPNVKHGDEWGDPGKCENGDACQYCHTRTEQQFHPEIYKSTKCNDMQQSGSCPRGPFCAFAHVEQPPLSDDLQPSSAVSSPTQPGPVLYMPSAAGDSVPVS
Nature of the assay: nsRBNS (natural sequence RNA bind-n-seq); RBNS binding buffer (assumed for nsRBNS): 25 mM Tris pH 7.5, 150 mM KCl, 3 mM MgCl2, 0.01% Triton X-100, 500 ug/ml BSA, 20 U/ml SUPERase-In, 4 C; UNK is unkempt and MSI1 is Musashi-1; names of the RNAs are library labels; protein concentration not given here; high values mean tight binding.
B1 displayed a binding signal of 0.631 enrichment R.
As to B2, the binding signal was 0.78 enrichment R.
B3 came in with a binding signal of 0.514 enrichment R.
B4 gave a binding signal of 0.521 enrichment R.
With B5 the figure was 0.932 enrichment R; with B6, 0.333 enrichment R.
With B7 the figure was 0.266 enrichment R.
With B8 the figure was 0.496 enrichment R.
The molecule B9 registered a binding signal of 0.446 enrichment R.
With B10 the figure was 0.511 enrichment R; with B11, 0.613 enrichment R; with B12, 0.668 enrichment R.
With B13 the figure was 0.76 enrichment R.
For the molecule B14, the binding signal turned out to be 0.558 enrichment R.
Then B15, with 0.605 enrichment R; and B16, with 0.607 enrichment R.
Then B17, with 0.444 enrichment R; and B18, with 1 enrichment R; and B19, with 0.389 enrichment R.
The molecule B20 returned a binding signal of 1.57 enrichment R.
B21 came in with a binding signal of 0.477 enrichment R.
With B22 the figure was 0.714 enrichment R.

(Values after PMC12136788.)
